The list shows a part of the results.
System: PF3D7_0420300 AP2 domain 1 (GST-tagged)
Assay: gcPBM binding intensity (ln(normalized median fluorescence intensity)); higher = stronger DNA binding
Method in brief: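 DNA-binding domains from P. falciparum, fused to GST and produced in E. coli, were put on an Agilent 4 × 180k double-stranded probe array for 1 h in 1× PBS holding 1% milk, 0.2 mg/ml BSA, 0.5% salmon testes DNA and 0.03% Triton X-100. Probes were primer-extended, 36 bp long and drawn from intergenic genomic regions, with negative controls included. After Alexa488 anti-GST antibody detection and a 488 nm scan, binding intensity was set as the highest Masliner-normalised natural-log median intensity across replicate spots of either probe orientation.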

Sequence | gcPBM binding intensity (ln)
ATAAAAAAAAAAACAGTAAAATTATAATTATAATTA [TGCATGCA_negctrl_site356] | 9.27
TATTTTATTATTATTATTTCTTTATAGTGTATTCTA [CACACA_negctrl_site517] | 9.19
TTTTCGTAACTGATTCAACACACAAAAGGGGGAAAA [CACACA_site8517] | 9.51
AATATATAGCTAAAAACACACAAATATATACACATA [CACACA_site9203] | 9.72
GGATAGGCATAACATAGTACGTACAAATATATATAT [XGTACX_site454] | 9.49
TATTTTATTATTATTATTAGTATGATTTCTTTATAG [CACACA_negctrl_site550] | 9.02
TTTTTTGTACCAAAAAAAAAAAAAAGAAAAAAAAAC [CACACA_negctrl_site1416] | 9.11
TAAGACAATAAATGCTGTACAATTGAATATCTTGGA [XGTACX_site636] | 9.16
TTATAAAAATTTAGTTGTACATGTCAAATTATCAAT [XGTACX_site7229] | 9.03
TATATATAAAAACACACACACACACCCTATAATTAT [CACACA_site4063] | 10.3
TTTCAAATTTAATACACACACAAGTATATATTTATC [CACACA_site3947] | 9.6
TTGTGTTATCACACGAAGGGGATAAGACATAAATGT [TGCATGCA_negctrl_site368] | 9.17
AATGTACACCCACCCACACACAAACAAATATATATA [CACACA_site5521] | 10.2
AATGTGTTTTTTTTTTTTTTTTTTTTCAATCTCTAT [CACACA_negctrl_site794] | 9.28
GAAAAAAGAAAAAAAAGTACACACATGTATATTAAT [XGTACX_site5265] | 9.52
TTTTTGTTTGAACACTGTACGTATAAATATAAAAGT [XGTACX_site6476] | 9.15
TTATATTATGTTCAATCAAAAATTATTTTTAAAAAA [XGTACX_negctrl_site595] | 8.66
AAAAAAAAAAAAAACACACACATATAAATATAAATA [CACACA_site6972] | 9.74
ATTATTTGAAACTATTGTACATTTAAAAACATTTTT [XGTACX_site4896] | 9
TGGAACCTTTAAAATACACACCCAAATCCTTTGAAA [CACACA_site7671] | 9.36
ATTGGACTATAAATAGGTACACATATATATATATAT [XGTACX_site7562] | 9.59
TAAATACTTGTATATAGTACAAGTTGTTTTTTTTAA [XGTACX_site5643] | 8.84

Sequence | gcPBM binding intensity (ln)
CATATATATTTTATTTGTACGTATAAAAAAACAAAA [XGTACX_site4253] | 9.09
ATATGAAAAAGAACTTGTACTAAAGTGGCATATTAT [XGTACX_site8520] | 9.51
TATTTATTGTGACACTTATATTATTTTATGATTAAA [CACACA_negctrl_site525] | 9.12
TATAAAATGATGATATGTACTTATGTAGTTTTTTTA [XGTACX_site8711] | 9.07
TTTTCATTTGTGACAGTGCAAAATGTTATATTAAAA [GTGCAC_site9647] | 8.93
AATATATGGTTTCATGATATTAAATTCAAAATAATG [CACACA_negctrl_site318] | 9.01
AATAATACATCCTTAGTGCAGAAATAAAAATTAAGC [GTGCAC_site9955] | 9.5
TGTATACATTCTGAATGTACGGAACACCTCATAACT [XGTACX_site7240] | 9.25
TTTGTAATAAATAAGAGTACAAGTATGGTTCCACTA [XGTACX_site2579] | 9.19
AAAATCTAGGTATTTATACACACTAAAATAATATAC [CACACA_site623] | 9.47
CAAATACAGAAACACACACACATATACATATATATA [CACACA_site3498] | 9.97
TATATATATATATGGGGTACAAATGGTCAGTATTAT [XGTACX_site1223] | 9.43
AATATGTAATAGTGTACACATATATCTGTATTTATG [CACACA_site4252] | 9.36
ATTACACATATAGTAGTGCAATAACTCCAAAAAAAA | 9.2
TTTAAATATAATTGGAGTACTTATAATATATATATA [XGTACX_site7247] | 8.9
ATGTTATTAAAAAAGGGTACACATCTTTTATGTTAA [XGTACX_site812] | 9.14
GAAAATATAAAAAAAAGTACATTTTCTCTAAATATA [XGTACX_site2441] | 8.89
AAAAAGGGTATTATTACACACACGTAAATATTAAGA [CACACA_site4233] | 9.7
AAAAAAAAATTATATACACACATATAAATATATATA [CACACA_site1197] | 9.46
CTATATAATATGAGCACACATAAGATTTGGTGTTAT [CACACA_site744] | 9.32
TATATATATTATATATGTACATATATTTTTTTTTTT [XGTACX_site127] | 9.2
ATTTATATTACAAAAAGTACACACATAAATAAATAC [XGTACX_site1827] | 9.77
